Reference: publication PMC7819943, “Rice protein-binding microarrays: a tool to detect cis-acting elements near promoter regions in rice”
This is one part of the list.

Each sequence was assayed against T1, OsWOX13 (Oryza sativa, UniProt Q5QMM3 1-267) (assay: protein-binding microarray (RPBM); PBS, 2% BSA, 51.3 ng/ul salmon testes DNA, 50 uM zinc acetate, 200 nM TF, 25 C, 1 h; high values mean tight binding). Conditions: protein: recombinant; tags: N-terminal polyhistidine and DsRed monomer fusion (pET32a); label: CyDye5-dUTP incorporated in the synthesized complementary strand; 3' TTTTT single-stranded linker to array surface; dsDNA, one strand shown.
T1 sequence: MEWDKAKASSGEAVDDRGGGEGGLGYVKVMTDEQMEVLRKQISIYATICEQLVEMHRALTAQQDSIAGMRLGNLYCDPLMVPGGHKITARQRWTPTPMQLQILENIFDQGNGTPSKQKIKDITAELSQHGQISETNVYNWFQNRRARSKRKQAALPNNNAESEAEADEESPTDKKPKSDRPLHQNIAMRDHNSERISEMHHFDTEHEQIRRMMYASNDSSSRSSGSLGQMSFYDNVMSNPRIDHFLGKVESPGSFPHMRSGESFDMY
How it was run: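 A custom Agilent array was converted to double-stranded form by primer extension with Cy5-dUTP and blocked with 2% BSA. Protein at 200 nM in PBS with 2% BSA, salmon testes DNA and 50 µM zinc acetate was applied for 1 h at 25 °C, followed by washing. The proteins were polyhistidine–DsRed N-terminal fusions of transcription factors, expressed in E. coli BL21-CodonPlus and Ni–NTA-purified. The binding signal is per-feature fluorescence intensity (arbitrary units) from an Axon 4000B scanner.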

Sequence	binding signal
TCCAAATCATTTATAACCAATGTAATAGTCAATTCATACACGGAGTCACCTAGTGCAG	4090 fluorescence intensity (a.u.)
TAAACAAATTAGCAGGTTGGCTACAAAATGTAATTGCTAGCGGAGTCACCTAGTGCAG	14400 fluorescence intensity (a.u.)
TGTGATTGGGCACAAGCACAACAGCGTCACCATGGATCTTCGGAGTCACCTAGTGCAG	29300 fluorescence intensity (a.u.)
ATTTAATAGAACAAAGTTACAATGCCAGAGTAAACAGTGCCGGAGTCACCTAGTGCAG	5030 fluorescence intensity (a.u.)
CAAAATATATTTAATGAAATTAATTTTGTGTTTTAAGAGTCGGAGTCACCTAGTGCAG	14500 fluorescence intensity (a.u.)
AGCTAATTTTCTAGCAAATATACTTAAACATACGTCTATTCGGAGTCACCTAGTGCAG	13500 fluorescence intensity (a.u.)
GATGTGACAGGGATCTTAATTTTAGTCCCTGATCCAAACTCGGAGTCACCTAGTGCAG	9690 fluorescence intensity (a.u.)
TATAAAACTGTAGTGATTTGTAAGCAATTCCGTTTGAACACGGAGTCACCTAGTGCAG	6850 fluorescence intensity (a.u.)
ATTTTGAAAATTGACGGAAGGAGTCGCCTACCGCCCTCTGCGGAGTCACCTAGTGCAG	9070 fluorescence intensity (a.u.)
CATTTAATTTTCCTAGTCACCCTTATTTAAATAACTTCAACGGAGTCACCTAGTGCAG	6500 fluorescence intensity (a.u.)
TCTGTTGTAATTGTAATCTAATCATATTAAATCCTTAGTTCGGAGTCACCTAGTGCAG	12800 fluorescence intensity (a.u.)
TTAAATTGTTGGATTTAGTCCTATACCGTTATAGGATGATCGGAGTCACCTAGTGCAG	13000 fluorescence intensity (a.u.)
TTAAATTTAAATTTAAATTTAATTTTGAGATTTCTTTTCACGGAGTCACCTAGTGCAG	55700 fluorescence intensity (a.u.)
TCAAATAATTAGAAGGGGTGAGACTTCGAATCCAAGTCGTCGGAGTCACCTAGTGCAG	14400 fluorescence intensity (a.u.)
ACTAAACTATCATAAACTATCATGTTCATCCTCATTTGACCGGAGTCACCTAGTGCAG	5550 fluorescence intensity (a.u.)
CTGTAATTTGTTTTGTTATCAATCTATGTTTAATACTTTACGGAGTCACCTAGTGCAG	17400 fluorescence intensity (a.u.)
ATGATTTCCACTAAACCCAATTAATTATCCCAAGCAGATTCGGAGTCACCTAGTGCAG	9000 fluorescence intensity (a.u.)
GCCCAATCACACGCGGGGAAAGTTGCGTGAGGGACTTCTCCGGAGTCACCTAGTGCAG	7260 fluorescence intensity (a.u.)
TTCCCATTATCCAATCTCAATCCCACCCGCATTTTCCATTCGGAGTCACCTAGTGCAG	3380 fluorescence intensity (a.u.)
CTTGACACACACTGCCCGCCACTGCCTCCTCACCATCCTACGGAGTCACCTAGTGCAG	3680 fluorescence intensity (a.u.)
GAATGAAATAAACCTAATTAATAAAGACACTAAGACAGTGCGGAGTCACCTAGTGCAG	5390 fluorescence intensity (a.u.)

Sequence	binding signal
CCAGACCAATCACGTTCCAGATAAGACCTGCAATTGGGCCCGGAGTCACCTAGTGCAG	14800 fluorescence intensity (a.u.)
GAGGGTAATTTGGTCCGAGATAGTATTTTAGCGTGTAACCCGGAGTCACCTAGTGCAG	3820 fluorescence intensity (a.u.)
CTTTTCTCCCAGTTTGATCAATTTCCACCCTTCAAATTCTCGGAGTCACCTAGTGCAG	6860 fluorescence intensity (a.u.)
CAGCTCACTAATTAACTAACACAGGGAGTACGAAAACAAACGGAGTCACCTAGTGCAG	3700 fluorescence intensity (a.u.)
TGTACGAATTAGCTATTAAATTGGTTATAGATGAATTAAACGGAGTCACCTAGTGCAG	7260 fluorescence intensity (a.u.)
CGAGAATGCAGATAATGTTAATTTGCAAGTTCAATTTTGGCGGAGTCACCTAGTGCAG	5730 fluorescence intensity (a.u.)
CTGTTGATTATTGCTATATTTGTCTGGGATTGTTAGTCTTCGGAGTCACCTAGTGCAG	24500 fluorescence intensity (a.u.)
AGTGATAGATAAGTAAAAGGTATATATTTAAGGGATAAAACGGAGTCACCTAGTGCAG	13000 fluorescence intensity (a.u.)
AAAATATAATTATTATCCAAAATACCCTCCAGGAACCCTACGGAGTCACCTAGTGCAG	10200 fluorescence intensity (a.u.)
GAATTTGATTTGACAAATGAAATGGAGAGTTGGCCAAATACGGAGTCACCTAGTGCAG	35000 fluorescence intensity (a.u.)
CAATCAAGGTGCTAGATGATTGATTGCCACCGAATCATTGCGGAGTCACCTAGTGCAG	32900 fluorescence intensity (a.u.)
CCCAATCATCAATATAATTGCTAGTAATATCTTAAGCAACCGGAGTCACCTAGTGCAG	25800 fluorescence intensity (a.u.)
GCATTCAATGACAATCAGATCAGCCATCATATGTGTTCGCCGGAGTCACCTAGTGCAG	4520 fluorescence intensity (a.u.)
GTTTTGATTGCAAACTGTACTAAGACCATCCGTTGTAATTCGGAGTCACCTAGTGCAG	41300 fluorescence intensity (a.u.)
TAAAATTCAATTAAATTAAAATTGAGGATTTATCATTTCTCGGAGTCACCTAGTGCAG	13900 fluorescence intensity (a.u.)
CATTCATTAATTAAACTAATTAATCAGAAGTTAATTGAGACGGAGTCACCTAGTGCAG	47600 fluorescence intensity (a.u.)
ACAAAATTGATTCATCGAGACTCCTGCTTTGCTCGTATTCCGGAGTCACCTAGTGCAG	28000 fluorescence intensity (a.u.)
ACGAGGGATCAATCAGAATTTAGTCACGCACCCAGGAACACGGAGTCACCTAGTGCAG	6960 fluorescence intensity (a.u.)
TGCCGAGATTTAATCAACTACTATTAGGTATGTGGTATCTCGGAGTCACCTAGTGCAG	4800 fluorescence intensity (a.u.)
AGGATTGTGTAATGGAACAAGATTGATAATAACAAATTTACGGAGTCACCTAGTGCAG	25200 fluorescence intensity (a.u.)
AGTTGTACTTGTTTATTATTAATTACAATTGTGAGACTAACGGAGTCACCTAGTGCAG	4490 fluorescence intensity (a.u.)
